This is an account of results in the BET-seq Pho4 binding data (Le et al. 2018).

The other results are listed elsewhere or left out. The energies were worked out here from pooled read counts, against the library average; single values are noisy.

This assay concerns the target T1, Pho4 (S. cerevisiae) (UniProt P07270).
T1 sequence: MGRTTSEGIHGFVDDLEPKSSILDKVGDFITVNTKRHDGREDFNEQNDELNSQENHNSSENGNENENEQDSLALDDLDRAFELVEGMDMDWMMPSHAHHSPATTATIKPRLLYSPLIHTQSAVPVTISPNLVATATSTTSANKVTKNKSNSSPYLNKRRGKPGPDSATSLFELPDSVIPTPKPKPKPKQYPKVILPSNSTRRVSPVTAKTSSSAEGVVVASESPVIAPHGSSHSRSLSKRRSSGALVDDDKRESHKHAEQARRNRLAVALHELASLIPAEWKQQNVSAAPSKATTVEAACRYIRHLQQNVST
As to the kind of experiment: relative binding free energy (BET-seq); higher = weaker binding. The note with it: reference: library average.
In the case of CATAGCACGTGGGAGG, the “relative binding free energy” value is -0.33 kcal/mol.

Take TTGTACACGTGATACT: the “relative binding free energy” value came to 0.19 kcal/mol.

Turning to ACGGCCACGTGATGGG, the “relative binding free energy” value came to 0.07 kcal/mol.

For the sequence GTAGTCACGTGGTGAC, the “relative binding free energy” value was determined as 0.07 kcal/mol.

On to AAGAACACGTGTTTGG, for which the “relative binding free energy” value is 0.11 kcal/mol.

Consider CGGGTCACGTGAGGGC, for which the “relative binding free energy” value was 0.22 kcal/mol.

Take AGATTCACGTGGTGCT: the “relative binding free energy” value was determined as 0.17 kcal/mol.

Turning to CGGTGCACGTGAGCGG, the “relative binding free energy” value is 0.15 kcal/mol.

In the case of CAGATCACGTGATAGG, the “relative binding free energy” value amounted to 0.39 kcal/mol.

For GGTAGCACGTGGATAA, the “relative binding free energy” value was 0.04 kcal/mol.

For GAATTCACGTGGTGGC, the “relative binding free energy” value stood at 0.37 kcal/mol.

For TAGTTCACGTGAGGGA, the “relative binding free energy” value turned out to be 0.37 kcal/mol.

On to TATGACACGTGAATGT, for which the “relative binding free energy” value stood at 0.27 kcal/mol.

Regarding GGGGGCACGTGTCATA, the “relative binding free energy” value was -0.12 kcal/mol.

Consider TGATCCACGTGGGTCG, for which the “relative binding free energy” value was 0.13 kcal/mol.

In the case of CAGGGCACGTGCTGGT, the “relative binding free energy” value is -0.22 kcal/mol.

In the case of TTTCGCACGTGATAGT, the “relative binding free energy” value came to 0.12 kcal/mol.

Consider TGGAGCACGTGCTGAT, for which the “relative binding free energy” value is -0.1 kcal/mol.

In the case of CGGGGCACGTGATTGT, the “relative binding free energy” value was -0.06 kcal/mol.

Turning to TTCGGCACGTGTTATT, the “relative binding free energy” value is -0.12 kcal/mol.

As for GATTACACGTGCGTTG, the “relative binding free energy” value is 0.21 kcal/mol.

For GGGGACACGTGTAGCT, the “relative binding free energy” value was -0.05 kcal/mol.

Consider ATATGCACGTGAAGAT, for which the “relative binding free energy” value worked out at 0.2 kcal/mol.

As for CGGGGCACGTGACAGT, the “relative binding free energy” value amounted to 0.08 kcal/mol.

In the case of TGCGACACGTGTGGCG, the “relative binding free energy” value is 0.03 kcal/mol.

For the sequence ATAATCACGTGTTCGG, the “relative binding free energy” value was 0.04 kcal/mol.

With ATGCTCACGTGGTGGG, the “relative binding free energy” value amounted to 0.21 kcal/mol.

GGATACACGTGGGTCT: the “relative binding free energy” value was -0.07 kcal/mol.

On to TCTAGCACGTGATGTG, for which the “relative binding free energy” value was -0.08 kcal/mol.

Take GATTACACGTGAGTGA: the “relative binding free energy” value amounted to 0.25 kcal/mol.

In the case of AGGTACACGTGCGGAG, the “relative binding free energy” value was determined as 0.09 kcal/mol.

For the sequence AGGTGCACGTGAAGTT, the “relative binding free energy” value is 0.12 kcal/mol.

As to TCAGGCACGTGTAGGT, the “relative binding free energy” value is -0.19 kcal/mol.

For the sequence AAATGCACGTGTGGGC, the “relative binding free energy” value was -0.18 kcal/mol.

For the sequence TGTGCCACGTGGAGGG, the “relative binding free energy” value is -0.1 kcal/mol.

As to ATTGACACGTGAAGGG, the “relative binding free energy” value is 0.24 kcal/mol.

AGTGTCACGTGCAGGG: the “relative binding free energy” value came to 0 kcal/mol.

Turning to GTTCGCACGTGGGAAG, the “relative binding free energy” value is -0.06 kcal/mol.

For GTTTGCACGTGTGCAT, the “relative binding free energy” value was determined as 0.08 kcal/mol.

CGTGACACGTGGGGCG: the “relative binding free energy” value was -0.1 kcal/mol.

As for TATAACACGTGTGTAT, the “relative binding free energy” value was -0.06 kcal/mol.

Consider GAGTGCACGTGCGGCG, for which the “relative binding free energy” value is -0.04 kcal/mol.

As to TAAGACACGTGTGCTT, the “relative binding free energy” value was determined as 0.09 kcal/mol.

For the sequence TTGGTCACGTGACTTT, the “relative binding free energy” value came to 0.2 kcal/mol.

Take AGTTTCACGTGTTCGG: the “relative binding free energy” value was determined as 0.24 kcal/mol.

For the sequence TTGGGCACGTGATTAT, the “relative binding free energy” value worked out at 0.11 kcal/mol.

In the case of GAGTACACGTGTGTGT, the “relative binding free energy” value turned out to be 0.06 kcal/mol.

Regarding GAATGCACGTGGTTAT, the “relative binding free energy” value is -0.12 kcal/mol.

On to TGTTGCACGTGGTGGG, for which the “relative binding free energy” value was -0.02 kcal/mol.

Regarding TCTATCACGTGTTTGG, the “relative binding free energy” value came to 0.19 kcal/mol.

As to GTAAGCACGTGAGTGC, the “relative binding free energy” value was found to be 0.29 kcal/mol.

On to TTGGTCACGTGGGTCG, for which the “relative binding free energy” value is -0.04 kcal/mol.

In the case of AATGGCACGTGTTTCT, the “relative binding free energy” value is -0.03 kcal/mol.

With TTATGCACGTGGGCTT, the “relative binding free energy” value was -0.14 kcal/mol.

As to TTATTCACGTGATTTC, the “relative binding free energy” value stood at 0.23 kcal/mol.

Turning to TTTTCCACGTGATATG, the “relative binding free energy” value was determined as 0.1 kcal/mol.

As for GTATGCACGTGATTGC, the “relative binding free energy” value turned out to be 0.11 kcal/mol.

For the sequence TTGCGCACGTGGGCAG, the “relative binding free energy” value was -0.23 kcal/mol.

Consider TTTCGCACGTGTGTGG, for which the “relative binding free energy” value was -0.05 kcal/mol.

Take GGGGACACGTGTTGGG: the “relative binding free energy” value was 0.16 kcal/mol.

Regarding TCGATCACGTGTGATG, the “relative binding free energy” value was found to be 0.19 kcal/mol.

On to TGAGTCACGTGGGTGG, for which the “relative binding free energy” value is 0 kcal/mol.

Regarding CGGGGCACGTGAATTG, the “relative binding free energy” value turned out to be 0.15 kcal/mol.
